Among all 310,000 compounds or so, about 14,000 (4.5%) showed an effect of 50% or more. Effects have a minus sign here. Some of the results follow.
Target: human ether-à-go-go-related gene (hERG) potassium channel (human, UniProt Q12809)
Assay: primary screen, population patch clamp on CHO cells stably expressing hERG
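Note: peak tail current of the secondary pulse compared with the same well before compound.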

Chain of human ether-à-go-go-related gene (hERG) potassium channel (Q12809 whole entry, looked up): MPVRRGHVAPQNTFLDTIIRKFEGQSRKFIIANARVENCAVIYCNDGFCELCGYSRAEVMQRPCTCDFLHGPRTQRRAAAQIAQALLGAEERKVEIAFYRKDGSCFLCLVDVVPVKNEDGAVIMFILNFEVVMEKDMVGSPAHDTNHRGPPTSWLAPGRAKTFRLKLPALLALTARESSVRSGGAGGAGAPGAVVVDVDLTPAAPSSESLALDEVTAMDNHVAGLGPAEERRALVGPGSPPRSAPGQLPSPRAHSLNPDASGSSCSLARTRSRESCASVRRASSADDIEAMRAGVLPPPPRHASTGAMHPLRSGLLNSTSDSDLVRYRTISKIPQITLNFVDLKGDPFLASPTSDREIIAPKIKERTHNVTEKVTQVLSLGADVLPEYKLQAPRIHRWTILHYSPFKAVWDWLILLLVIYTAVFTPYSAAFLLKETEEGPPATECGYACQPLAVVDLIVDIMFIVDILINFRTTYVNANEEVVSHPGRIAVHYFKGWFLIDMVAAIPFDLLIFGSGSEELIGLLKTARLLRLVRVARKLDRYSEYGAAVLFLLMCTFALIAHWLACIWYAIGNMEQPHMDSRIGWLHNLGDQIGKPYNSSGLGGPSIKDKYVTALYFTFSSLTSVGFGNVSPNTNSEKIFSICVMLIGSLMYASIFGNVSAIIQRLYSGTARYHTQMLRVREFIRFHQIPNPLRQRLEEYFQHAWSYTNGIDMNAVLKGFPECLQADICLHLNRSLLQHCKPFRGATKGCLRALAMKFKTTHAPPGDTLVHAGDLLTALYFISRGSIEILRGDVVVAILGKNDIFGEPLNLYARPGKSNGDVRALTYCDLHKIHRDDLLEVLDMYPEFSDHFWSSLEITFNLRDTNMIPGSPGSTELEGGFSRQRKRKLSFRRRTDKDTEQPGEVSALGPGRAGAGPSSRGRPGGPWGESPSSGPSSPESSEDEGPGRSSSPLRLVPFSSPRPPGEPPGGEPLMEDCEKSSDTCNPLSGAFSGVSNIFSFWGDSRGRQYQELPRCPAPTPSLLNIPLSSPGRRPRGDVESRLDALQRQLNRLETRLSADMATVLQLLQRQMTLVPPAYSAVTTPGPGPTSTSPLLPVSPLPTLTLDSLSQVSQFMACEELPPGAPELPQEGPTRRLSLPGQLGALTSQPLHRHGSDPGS

Going from `COc1ccc(OC)c(/C=C/C(=O)N(C)CC(=O)Nc2ccc(N3CCOCC3)cc2)c1` to `CCOc1ccc(NC(=O)CN(C)C(=O)c2ccc(COc3ccccc3)o2)cc1OCC`, the “hERG current change (%, negative = inhibition) at 10uM” value falls from -8.78% to -11.9%.

Compared with `Cc1cccc(OCC(=O)Nc2cccc(C(=O)Nc3ccccc3C(=O)O)c2)c1`, `Cc1cccc(NC(=O)Cn2cc(C=O)c3ccccc32)c1` is higher in “hERG current change (%, negative = inhibition) at 10uM” value: 8.81% for the first, 16.5% for the second.

Going from `COc1cccc(CC(NC(C)=O)C(=O)NC2CCN(S(=O)(=O)c3ccc(NC(C)=O)cc3)CC2)c1` (stereo not drawn) to `O=C1CCc2cc(S(=O)(=O)NC(Cc3ccccc3)C(=O)NC3CCCC3)ccc2N1` (stereo not drawn), the “hERG current change (%, negative = inhibition) at 10uM” value falls from 19.1% to 13.5%.

Compared with `Cc1nn(C)cc1CNC(=O)C1C2CCC(C2)C1C(=O)O` (stereo not drawn), `O=C(O)C1CCCCC1C(=O)NCCCc1ccccc1` (stereo not drawn) is lower in “hERG current change (%, negative = inhibition) at 10uM” value: 21.1% for the first, -0.181% for the second.

Compared with `CN1CCN(c2ccc([N+](=O)[O-])cc2C(=O)c2ccccc2)CC1`, `CCCc1cnc(N2CCN(C(=O)c3ccccc3)CC2)nc1` is lower in “hERG current change (%, negative = inhibition) at 10uM” value: -54.2% for the first, -57.1% for the second.

First: CC(C)NC(=O)c1ccc(C2SCC(=O)N2Cc2ccccc2)cc1 (stereo not drawn)
Second: COc1cccc(OC)c1C(=O)NC(C)c1ccccc1 (stereo not drawn)
The “hERG current change (%, negative = inhibition) at 10uM” value of the first is lower: 0.739% for the first, 10.7% for the second.

Compared with `Cn1cccc1C(=O)NC(=O)COC(=O)c1cc(Cl)ccc1[N+](=O)[O-]`, `COc1cccc(CNc2ccc([N+](=O)[O-])c(NCC(=O)O)n2)c1` is higher in “hERG current change (%, negative = inhibition) at 10uM” value: -6.64% for the first, 7.23% for the second.

Compared with `N#CCCn1cnc2c(=S)nc[nH]c21`, `Cn1c(-c2ccco2)n[nH]c1=S` is higher in “hERG current change (%, negative = inhibition) at 10uM” value: -11.2% for the first, 14.3% for the second.

Going from `O=C(O)c1cccnc1Sc1ccccc1` to `O=C(C[n+]1cccc(CO)c1)Nc1nc2ccccc2s1.[Cl-]`, the “hERG current change (%, negative = inhibition) at 10uM” value falls from 23.6% to -9.18%.

Compared with `CCOc1cc(S(=O)(=O)NC2CC2)c(OCC)cc1-n1cnnn1`, `CCn1ncc(C2=NOC(C(=O)Nc3cc(OC)c(Cl)cc3OC)C2)c1C` (stereo not drawn) is higher in “hERG current change (%, negative = inhibition) at 10uM” value: -15.5% for the first, -7% for the second.

Compared with `CC(C)CC(=O)NC(c1ccccc1)c1c(O)ccc2ccccc12` (stereo not drawn), `S=C(N/N=C/c1cccc2ccccc12)Nc1cccc(Cl)c1` is lower in “hERG current change (%, negative = inhibition) at 10uM” value: 13.1% for the first, 11.1% for the second.

Compared with `CCNC(=O)COc1ccc(/C=N/NC(=O)c2cccnc2)cc1OC`, `CC(C)(C)c1ccc(C(=O)N/N=C/c2ccccn2)cc1` is lower in “hERG current change (%, negative = inhibition) at 10uM” value: 38.3% for the first, -5.6% for the second.

Compared with `COc1cccc(OCC(O)CN2CCN(CCN3C(=O)c4cccc5cccc(c45)C3=O)CC2)c1.Cl` (stereo not drawn), `COc1ccccc1N1CCN(Cc2cccc(OC)c2O)CC1` is lower in “hERG current change (%, negative = inhibition) at 10uM” value: -59.2% for the first, -64.9% for the second.

First: CCNc1nc2nonc2nc1NCC
Second: CCC(=O)NCCNc1nc2cc(C)cc(C)c2cc1C#N
The “hERG current change (%, negative = inhibition) at 10uM” value of the first is lower: -7.93% for the first, 58.1% for the second.

Going from `CCC1=C(OC(=O)N(CC)CC)N2C(=O)OC(=NCC3CC3)[C@]2(C)[C@H]2C1=CC[C@H]1C(=O)N(CC)C(=O)[C@H]12` to `CCCCN(CCCC)CCNC(=O)CN1C(=O)COc2ccc(S(=O)(=O)N3CCC(C)CC3)cc21`, the “hERG current change (%, negative = inhibition) at 10uM” value falls from 9.28% to -66.5%.

Going from `CN1CCCN(S(=O)(=O)c2cccc(Cl)c2Cl)CC1.Cl` to `COc1ccc(CNC(=O)C2CCN(S(=O)(=O)N3CCCCC3)CC2)cc1`, the “hERG current change (%, negative = inhibition) at 10uM” value rises from -14.7% to 7.64%.

Going from `Cc1nnc2sc(SCC(=O)Nc3nccs3)nn2c1=O` to `Cc1ccc2cc(C)c3nnc(SCC(=O)Nc4nc5c(s4)CCCC5)n3c2c1C`, the “hERG current change (%, negative = inhibition) at 10uM” value falls from 26.3% to -53.8%.

Compared with `CC(C)c1ccc(/C=N\NC(=O)c2ccc(Cn3cccn3)o2)cc1`, `CCn1c(Cc2cccs2)nnc1SCC(=O)c1ccc(C)cc1` is higher in “hERG current change (%, negative = inhibition) at 10uM” value: -42% for the first, -33.2% for the second.

Going from `Cc1ccc(C)c(OCC(=O)N2CCN(C(=O)c3ccco3)CC2)c1` to `O=C(CCNS(=O)(=O)c1ccc(Cl)cc1)OCC(=O)N1CCN(C(=O)c2ccco2)CC1`, the “hERG current change (%, negative = inhibition) at 10uM” value falls from -8.23% to -47.4%.

Going from `O=C(/C(=N\Nc1ccccc1)Sc1nnnn1-c1ccccc1)c1ccccc1` to `CNC(=O)c1cc2cc(OC)ccc2n1CCN(Cc1ccccc1)Cc1ccccc1.Cl`, the “hERG current change (%, negative = inhibition) at 10uM” value rises from 8.78% to 14.1%.

Going from `Cc1cccc(-n2nnc3cnn(C)c3c2=O)c1` to `Cc1ccc(OC(=O)CCc2c(C)nc3ncnn3c2C)cc1`, the “hERG current change (%, negative = inhibition) at 10uM” value falls from 1.94% to -8.47%.

Compared with `CN(C)CCC1CCN(c2cc(C#N)c(C#N)cc2[N+](=O)[O-])CC1`, `CCOC(=O)C1CCN(C(=O)Cn2nc(C)n3cccc3c2=O)CC1` is higher in “hERG current change (%, negative = inhibition) at 10uM” value: -34% for the first, 2.72% for the second.

Compared with `COC(=O)c1cc(C(=O)OC)[nH]n1`, `Cc1ccc(C(=O)NCCCC(=O)O)o1` is lower in “hERG current change (%, negative = inhibition) at 10uM” value: 40.5% for the first, 0.2% for the second.

First: N#C/C(=C/c1ccccc1OCc1ccc(F)cc1)c1ccc(C(=O)O)cc1
Second: COC(=O)C1=C(c2ccc(F)cc2OCc2ccccc2)C[C@@H]2CC[C@H]1N2C(=O)NCc1cccc(F)c1
The “hERG current change (%, negative = inhibition) at 10uM” value of the first is lower: 17.9% for the first, 22% for the second.

First: COCCN1C(=O)/C(=C/c2ccc(N3CCCC3)cc2C)SC1=S
Second: Cl.c1ccc2c(N3CCCCC3)ncnc2c1
The “hERG current change (%, negative = inhibition) at 10uM” value of the first is higher: 8.95% for the first, 1.44% for the second.

First: C#CCOCCOCCOCCNc1nc(N2CCN(C(=O)[C@H]([C@@H](C)CC)n3cc([C@@H](N)CO)nn3)CC2)nc(N2CCN(C(=O)[C@H](CCCCN)n3cc([C@@H](N)CC(C)C)nn3)CC2)n1.Cl
Second: CCOCCCn1c(=NC(C)=O)c(C(=O)OCC)cc2c(=O)n3ccccc3nc21
The “hERG current change (%, negative = inhibition) at 10uM” value of the first is higher: -0.687% for the first, -22.9% for the second.

Compared with `O=C(N[C@@H](Cc1ccccc1)C(=O)O)c1c(F)c(F)c(F)c(F)c1F`, `O=C(CN1C(=O)c2ccccc2C1=O)Nc1ccccc1F` is lower in “hERG current change (%, negative = inhibition) at 10uM” value: 9.16% for the first, -6.46% for the second.

First: C=CCn1c(SCc2nc3ccccc3[nH]2)nnc1-c1ccncc1
Second: CCCCN1CC(O)=C(c2nc3ccccc3[nH]2)C1=N
The “hERG current change (%, negative = inhibition) at 10uM” value of the first is lower: -20.6% for the first, 2.68% for the second.

First: Cc1cc(C)nc(NC(=O)NS(=O)(=O)N2CCCCCC2)n1
Second: CCCc1cc(=O)[nH]c(SCC(=O)NCCC2=CCCCC2)n1
The “hERG current change (%, negative = inhibition) at 10uM” value of the first is higher: 6.91% for the first, -11.2% for the second.

Going from `Cc1[nH][nH]c(=O)c1C(c1cc([N+](=O)[O-])ccc1O)c1c(C)[nH][nH]c1=O` to `CCOC(=O)c1cc2[nH]c3ccccc3c2[n+](-c2ccc([N+](=O)[O-])cc2)c1N.O=C([O-])C(F)(F)F`, the “hERG current change (%, negative = inhibition) at 10uM” value rises from -62.5% to -58.4%.

Compared with `Cc1oc(-c2cccc(Br)c2)[n+]([O-])c1C`, `Cc1cc(C)c2nc(-c3cccc(Cl)c3)c(C)c(C(=O)N3CCOCC3)c2c1` is higher in “hERG current change (%, negative = inhibition) at 10uM” value: -3.76% for the first, -0.85% for the second.

Compared with `COc1ccc(Cl)cc1-c1nc(-c2ccc(NC(=O)c3cccs3)cc2)no1`, `COc1ccc(C(=O)Nc2ccc3ccccc3n2)c(OC)c1OC` is higher in “hERG current change (%, negative = inhibition) at 10uM” value: -5.55% for the first, 17.8% for the second.

Going from `COc1cccc(CC2(CO)CCCN(Cc3ccc(OC)c(C)c3OC)C2)c1` (stereo not drawn) to `COc1ccc(C2C(C(=O)c3ccco3)=C(O)C(=O)N2CC2CCCO2)cc1OC` (stereo not drawn), the “hERG current change (%, negative = inhibition) at 10uM” value rises from -77.6% to 24.1%.

First: CC(C)=CC1C(C(=O)NCCc2ccccc2)C1(C)C (stereo not drawn)
Second: CCC(NC(=O)C1CCC1)c1ccccc1 (stereo not drawn)
The “hERG current change (%, negative = inhibition) at 10uM” value of the first is lower: -17.9% for the first, 12.6% for the second.

Compared with `C(=N\N1CCOCC1)/c1cccs1`, `CCSc1cc(N2CCOCC2)nc(-c2ccccc2)n1` is lower in “hERG current change (%, negative = inhibition) at 10uM” value: 3.96% for the first, 2.54% for the second.

Compared with `Cc1cc(C)c(CN2CCC(n3nccc3NC(=O)c3ccccc3Cl)CC2)cc1C`, `Cc1ccc(C(=O)N2CCN(Cc3ccc4c(c3)OCO4)CC2)c(Cl)c1` is higher in “hERG current change (%, negative = inhibition) at 10uM” value: -50.8% for the first, -18.6% for the second.

Compared with `CCOc1ccc(NS(=O)(=O)c2ccc(C(=O)N(C)CCc3ccc(OC)c(OC)c3)cc2)cc1`, `COc1ccccc1C(=O)Nc1nnc(S(=O)(=O)N(C)Cc2ccccc2)s1` is lower in “hERG current change (%, negative = inhibition) at 10uM” value: 5.44% for the first, 3.88% for the second.

First: O=C(Nc1cnn(Cc2c(Cl)cccc2Cl)c1)c1ccc([N+](=O)[O-])cc1
Second: O=C(Nc1ccc(Cl)cc1)Nc1nnc(CSCc2ccc(Cl)cc2)s1
The “hERG current change (%, negative = inhibition) at 10uM” value of the first is lower: -9.9% for the first, 14.6% for the second.

Compared with `O=C(NCCN1CCN(c2ccccc2)CC1)Nc1ccc(Cl)cc1`, `CCC(=O)Nc1ccc(C(=O)COC(=O)C(CCSC)NC(=O)COc2ccccc2)cc1` (stereo not drawn) is higher in “hERG current change (%, negative = inhibition) at 10uM” value: -45.5% for the first, 5.53% for the second.

Compared with `CCn1nc(C)c(/C=N/NC(=O)c2ccoc2C)c1C`, `Cc1ccc(N=C2SCCCN2C(=O)c2ccco2)cc1Cl` is lower in “hERG current change (%, negative = inhibition) at 10uM” value: 14.5% for the first, 1.54% for the second.

Going from `CC(OC(=O)CCCc1nc2ccccc2s1)C(=O)NC(N)=O` (stereo not drawn) to `CC1CCCCN1C(=O)CCNC(=O)Cn1cnc2ccccc2c1=O` (stereo not drawn), the “hERG current change (%, negative = inhibition) at 10uM” value rises from 8.96% to 17.3%.

Going from `CC1(C)CC2CC(C)(CN2C(=O)COC(=O)c2ccccc2C(F)(F)F)C1` (stereo not drawn) to `CCC(C)(C)NC(=O)C(c1ccccn1)N(C(=O)c1csnn1)C1CCCCC1` (stereo not drawn), the “hERG current change (%, negative = inhibition) at 10uM” value rises from -36% to 6.56%.

Compared with `O=S(=O)(N/N=C\c1cccc(F)c1)c1ccccc1`, `O=CN1CCCN(Cc2nc(Cc3ccccc3F)no2)CC1` is higher in “hERG current change (%, negative = inhibition) at 10uM” value: -2.6% for the first, 16.1% for the second.

With `CSC1=NSC2=NC(=O)/C(=C/c3coc4ccc(O)cc4c3=O)C(=N)N12` the “hERG current change (%, negative = inhibition) at 10uM” value was 4.29%.

Source: paper PMC4336329 (PLoS ONE, 2015)
